# In a collection of fitness landscapes (doi:10.1016/j.celrep.2020.107928):
# The full ranking holds about 81,000 sequences; the median of “one-hybrid fitness for binding parS DNA” is about -0.17, and the highest 2% start at about 0.51. This is one part of the list.
# B1: Caulobacter ParB omega fusion; a variant is named by its letters at X, in order, B8GW30 (parent)
# chain: MESVVVGEPGMSEGRRGLGRGLSALLGEVDAAPAQAPGEQLGGSREAPIEILQRNPDQPRRTFREEDLEDLSNSIREKGVLQPILVRPSPDTAGEYQIVAGERAWRAAQRAGLKTVPIMVRELDDLAVLEIGIIENVQRADLNVLEEALSYKVLMEKFERTQENIAQTIGKSXSHVANXMRLLXLPDEVQSYLVSGELTAXHARAIAAAADPVALAKQIIEGGLSVRETEALARKAPNLSAGKSKGGRPPRVKDTDTQALESDLSSVLGLDVSIDHRGSTGTLTITYATLEQLDDLCNRLTRGI
# Variants of: B1
# Test: one-hybrid fitness for binding parS DNA (scaled: cognate 1, non-cognate 0); higher = stronger binding
# Settings: with parS DNA site
# Summary of the method: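 On M9-minus-histidine containing 0.1 mM IPTG and 5 mM 3-AT, E. coli USO cells with a HIS3 reporter, site 19 bp from the promoter, grew 48 hours at 37°C to select Caulobacter ParB libraries randomised at four specificity codons. Plasmids from before and after were Illumina-sequenced, with three replicate libraries pooled and variants under 10 reads left out. Fitness is the log change in variant-to-wild-type read ratio, rescaled against cognate and non-cognate.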
row,Variant,one-hybrid fitness for binding parS DNA
1,HAFT,≤ 0.2
2,KTIR,≤ 0.2
3,QKWW,≤ 0.2
4,RMME,≤ 0.2
5,SLSA,≤ 0.2
6,CVST,≤ 0.2
7,LQLV,≤ 0.2
8,QDQD,≤ 0.2
9,GGSC,≤ 0.2
10,WIVR,≤ 0.2
11,MSTN,≤ 0.2
12,QSHY,≤ 0.2
13,RVQC,0.983
14,RFLA,0.533
15,DSKV,≤ 0.2
16,AMFG,≤ 0.2
17,RACK,≤ 0.2
18,SAIG,≤ 0.2
19,VTWW,≤ 0.2
20,QELT,≤ 0.2
21,WSTS,≤ 0.2
22,LTRH,≤ 0.2
23,AQGG,≤ 0.2
24,LDNV,≤ 0.2

row,Variant,one-hybrid fitness for binding parS DNA
1,TERC,≤ 0.2
2,ADTW,≤ 0.2
3,YVIV,≤ 0.2
4,PRPD,≤ 0.2
5,YPCT,≤ 0.2
6,SHRC,≤ 0.2
7,QRNN,≤ 0.2
8,ERNG,≤ 0.2
9,QMWI,≤ 0.2
10,MNCR,≤ 0.2
11,ATLA,≤ 0.2
12,YSMS,≤ 0.2
13,RART,0.836
14,ADKL,≤ 0.2
15,QNAF,≤ 0.2
16,HNLV,≤ 0.2
17,DEHC,≤ 0.2
18,MTSE,≤ 0.2
19,LLGH,≤ 0.2
20,SRHE,≤ 0.2
21,QEQT,≤ 0.2
22,KPVK,≤ 0.2
23,RPLR,≤ 0.2
24,PFYT,≤ 0.2

row,Variant,one-hybrid fitness for binding parS DNA
1,CCPV,≤ 0.2
2,NSPN,≤ 0.2
3,WYDR,≤ 0.2
4,SSKC,≤ 0.2
5,PTAP,≤ 0.2
6,CFGR,≤ 0.2
7,QMLA,≤ 0.2
8,DITK,≤ 0.2
9,LKMT,≤ 0.2
10,KGNF,≤ 0.2
11,LHQP,≤ 0.2
12,RQVY,0.375
13,QATK,≤ 0.2
14,RTKG,0.872
15,RMTM,0.326
16,TLMC,≤ 0.2
17,GNLC,≤ 0.2
18,FDLT,≤ 0.2
19,CTMM,≤ 0.2
20,DHRW,≤ 0.2
21,TENN,≤ 0.2
22,GTDC,≤ 0.2
23,NVIT,≤ 0.2
24,NCVL,≤ 0.2

row,Variant,one-hybrid fitness for binding parS DNA
1,MRHR,≤ 0.2
2,RCWV,≤ 0.2
3,DQAG,≤ 0.2
4,TSGL,≤ 0.2
5,PGYP,≤ 0.2
6,RMIS,0.997
7,IDSC,≤ 0.2
8,TCNM,≤ 0.2
9,WGGV,≤ 0.2
10,ITYC,≤ 0.2
11,YTTM,≤ 0.2
12,ASIF,≤ 0.2
13,VTFT,≤ 0.2
14,DLEE,≤ 0.2
15,TQLI,≤ 0.2
16,KCCR,≤ 0.2
17,TVWC,≤ 0.2
18,RCDP,0.204
19,PAYV,≤ 0.2
20,RVLH,0.229
21,ADQI,≤ 0.2
22,LFYG,≤ 0.2
23,HNFP,≤ 0.2
24,AKFG,≤ 0.2

row,Variant,one-hybrid fitness for binding parS DNA
1,FYST,≤ 0.2
2,CRGY,≤ 0.2
3,PVKL,≤ 0.2
4,MNQG,≤ 0.2
5,AYNL,≤ 0.2
6,HVQW,≤ 0.2
7,SFQC,≤ 0.2
8,AVGY,≤ 0.2
9,RRIM,≤ 0.2
10,PMIS,≤ 0.2
11,QPMI,≤ 0.2
12,TSMG,≤ 0.2
13,IGYS,≤ 0.2
14,HSMD,≤ 0.2
15,KPGL,≤ 0.2
16,QWST,≤ 0.2
17,KLWL,≤ 0.2
18,YMVR,≤ 0.2
19,KRTM,≤ 0.2
20,IHTR,≤ 0.2
21,DVPG,≤ 0.2
22,KIKT,≤ 0.2
23,HASL,≤ 0.2
24,CGKV,≤ 0.2

row,Variant,one-hybrid fitness for binding parS DNA
1,AKPC,≤ 0.2
2,ATAM,≤ 0.2
3,PCRQ,≤ 0.2
4,NRRM,≤ 0.2
5,IPGQ,≤ 0.2
6,TLYA,≤ 0.2
7,ATQY,≤ 0.2
8,CSCN,≤ 0.2
9,NWGR,≤ 0.2
10,QQNS,≤ 0.2
11,LRVK,≤ 0.2
12,CSHD,≤ 0.2
13,HGAV,≤ 0.2
14,EFRT,≤ 0.2
15,DHWG,≤ 0.2
16,DWQS,≤ 0.2
17,AGNY,≤ 0.2
18,GASI,≤ 0.2
19,MHHY,≤ 0.2
20,SNAG,≤ 0.2
21,WRRT,≤ 0.2
22,FHTG,≤ 0.2
23,DLTR,≤ 0.2
24,LCLI,≤ 0.2

row,Variant,one-hybrid fitness for binding parS DNA
1,NPTT,≤ 0.2
2,NNRW,≤ 0.2
3,FDAY,≤ 0.2
4,DMTC,≤ 0.2
5,TRSQ,≤ 0.2
6,RADF,≤ 0.2
7,SHPG,≤ 0.2
8,MTRA,≤ 0.2
9,AQMF,≤ 0.2
10,TVYF,≤ 0.2
11,LRKG,≤ 0.2
12,RKPM,≤ 0.2
13,LCHR,≤ 0.2
14,TFRW,≤ 0.2
15,KLCR,≤ 0.2
16,YEYV,≤ 0.2
17,QGNS,≤ 0.2
18,HQTD,≤ 0.2
19,NPAR,≤ 0.2
20,SQVL,≤ 0.2
21,CCSQ,≤ 0.2
22,PDYI,≤ 0.2
23,CETR,≤ 0.2
24,MIHW,≤ 0.2

row,Variant,one-hybrid fitness for binding parS DNA
1,INGS,≤ 0.2
2,ECSS,≤ 0.2
3,QIIV,≤ 0.2
4,DRYV,≤ 0.2
5,PNWA,≤ 0.2
6,NMHV,≤ 0.2
7,DEDM,≤ 0.2
8,CALF,≤ 0.2
9,HLDC,≤ 0.2
10,VTPT,≤ 0.2
11,CNFS,≤ 0.2
12,PQHG,≤ 0.2
13,WSAH,≤ 0.2
14,DGCC,≤ 0.2
15,QCWL,≤ 0.2
16,PAHI,≤ 0.2
17,VVHG,≤ 0.2
18,CYTN,≤ 0.2
19,DSFT,≤ 0.2
20,WARS,≤ 0.2
21,PRKM,≤ 0.2
22,TCFG,≤ 0.2
23,NVNI,≤ 0.2
24,LKCC,≤ 0.2

row,Variant,one-hybrid fitness for binding parS DNA
1,APKC,≤ 0.2
2,NLKR,≤ 0.2
3,TRWR,≤ 0.2
4,VESD,≤ 0.2
5,VFVN,≤ 0.2
6,SFPC,≤ 0.2
7,VRLG,≤ 0.2
8,MSSN,≤ 0.2
9,NSTC,≤ 0.2
10,QTQL,≤ 0.2
11,EMES,≤ 0.2
12,RCIH,0.213
13,VHFG,≤ 0.2
14,QMIN,≤ 0.2
15,DWAS,≤ 0.2
16,SNHY,≤ 0.2
17,PGYT,≤ 0.2
18,KRHP,≤ 0.2
19,YKTY,≤ 0.2
20,GSDS,≤ 0.2
21,SLEE,≤ 0.2
22,FHSS,≤ 0.2
23,GGKG,≤ 0.2
24,LPHA,≤ 0.2

row,Variant,one-hybrid fitness for binding parS DNA
1,LDIC,≤ 0.2
2,DVCI,≤ 0.2
3,QPDE,≤ 0.2
4,WLDC,≤ 0.2
5,REEI,≤ 0.2
6,EDAS,≤ 0.2
7,SRHY,≤ 0.2
8,RRVE,≤ 0.2
9,AYLR,≤ 0.2
10,QIRD,≤ 0.2
11,WVGR,≤ 0.2
12,PPDF,≤ 0.2
13,YKAG,≤ 0.2
14,RCYA,0.619
15,EALV,≤ 0.2
16,TKCL,≤ 0.2
17,NTTK,≤ 0.2
18,MCSL,≤ 0.2
19,KGNR,≤ 0.2
20,RNPI,≤ 0.2
21,RAVA,0.542
22,RNMH,≤ 0.2
23,WLHF,≤ 0.2
24,KLSM,≤ 0.2

row,Variant,one-hybrid fitness for binding parS DNA
1,FQVT,≤ 0.2
2,GKMG,≤ 0.2
3,QYAI,≤ 0.2
4,RCMR,≤ 0.2
5,VDYT,≤ 0.2
6,HEWR,≤ 0.2
7,HDCR,≤ 0.2
8,HSQF,≤ 0.2
9,GAAG,≤ 0.2
10,LWIV,≤ 0.2
11,MHRT,≤ 0.2
12,SRMQ,≤ 0.2
13,GEVY,0.21
14,CVPT,≤ 0.2
15,MNSE,≤ 0.2
16,WRER,≤ 0.2
17,LIIV,≤ 0.2
18,GVHP,≤ 0.2
19,RPHM,≤ 0.2
20,PDCR,≤ 0.2
21,GFIR,≤ 0.2
22,ISPH,≤ 0.2
23,YAFS,≤ 0.2
24,HVKS,≤ 0.2

row,Variant,one-hybrid fitness for binding parS DNA
1,LWMS,≤ 0.2
2,VPSC,≤ 0.2
3,VPTL,≤ 0.2
4,PSYK,≤ 0.2
5,KAVL,≤ 0.2
6,CLFD,≤ 0.2
7,RGKE,≤ 0.2
8,IHPY,≤ 0.2
9,RESE,≤ 0.2
10,WYTG,≤ 0.2
11,KADG,≤ 0.2
12,VQQM,≤ 0.2
13,MEVE,≤ 0.2
14,EARY,≤ 0.2
15,PRHI,≤ 0.2
16,SYCC,≤ 0.2
17,PNTH,≤ 0.2
18,MMAT,≤ 0.2
19,VLPC,≤ 0.2
20,MRIM,≤ 0.2
21,AMAK,≤ 0.2
22,RHRS,0.823
23,HPHV,≤ 0.2
24,KSLY,≤ 0.2

row,Variant,one-hybrid fitness for binding parS DNA
1,PIYL,≤ 0.2
2,RMEY,0.409
3,REAR,≤ 0.2
4,ACYF,≤ 0.2
5,VVQA,≤ 0.2
6,QKDR,≤ 0.2
7,KQRK,≤ 0.2
8,MRTG,≤ 0.2
9,QDAW,≤ 0.2
10,CSTW,≤ 0.2
11,WDTT,≤ 0.2
12,MAMS,≤ 0.2
13,YNTI,≤ 0.2
14,FMPF,≤ 0.2
15,RNDM,≤ 0.2
16,HASV,≤ 0.2
17,RIMV,≤ 0.2
18,PMRM,≤ 0.2
